Source: PubChem BioAssay (Tox21)
Several values for one entry are separate records, joined by “and”; a condition that tells them apart may be missing. Equal entries are not always repeated. The inconclusive results got no clear call from the source; some entries with a clear call stand among them for comparison. Potencies of inconclusive entries are doubtful fits and often do not repeat. Some structures have more than one record in an assay (separate samples or runs), and their calls can disagree. Activity calls are given as the source filed them. The call rests on the fitted dose curve; in most records, active means well fitted cell-killing curve with a large enough effect in the repeat runs; inconclusive means weak or mixed curves, or effect the other way; inactive means no such curve, though single readings can be large or run the other way. Peptide text beside a SMILES is read from it.

Test: qHTS assay for identifying genotoxic compounds that show differential cytotoxicity against isogenic chicken DT40 cell lines with known DNA damage response pathways - Rev3 mutant cell line (AID 743014); further: nearly all actives have a fitted effect of over 55% in size
Details: chicken DT40 Rev3-/- viability, CellTiter-Glo, 40 h; activity, negative = cytotoxicity: at 68.4 µM (top of the series) unless noted
On the % scale 0 is the no-effect control and ±100 the full control effect; potency means the concentration at half of the fitted maximal effect; tags describe the fitted curve by direction and shape.

Question: Which Potency does the source give for COC(=O)[C@H](Cc1ccccc1)NC(=O)[C@@H](N)CC(=O)O (H-Asp-Phe-OMe) here?
Answer: inconclusive: 11.9 µM [rising, partial curve, poor fit]

Question: With CCCCCCCCCCCCCCNCCO as the molecule, how does the Potency read?
Answer: active: 21.1 µM

Question: With COCC(=O)Nc1c(I)c(C(=O)NCC(O)CO)c(I)c(C(=O)N(C)CC(O)CO)c1I (stereo not drawn) as the molecule, how does the “activity, negative = cytotoxicity” value read?
Answer: inactive: 11.2% [at 31.4 µM]

Question: Which Potency does the source give for O=CCc1ccccc1 here?
Answer: inconclusive: 48.6 µM [cytotoxic, partial curve]

Question: Which Potency does the source give for C[C@H]1O[C@@H](O[C@H]2CC[C@@]3(C)[C@H](CC[C@@H]4[C@@H]3C[C@@H](O)[C@]3(C)[C@@H](C5=CC(=O)OC5)CC[C@]43O)C2)C[C@H](O)[C@@H]1O[C@H]1C[C@H](O)[C@H](O[C@H]2C[C@H](O)[C@H](O[C@@H]3O[C@H](CO)[C@@H](O)[C@H](O)[C@H]3O)[C@@H](C)O2)[C@@H](C)O1 here?
Answer: active: 1.33 µM

Question: Which Potency does the source give for Brc1ccccc1-c1ccccc1 here?
Answer: active: 41 µM

Question: With CCOc1nc2cccc(C(=O)OC(C)OC(=O)OC3CCCCC3)c2n1Cc1ccc(-c2ccccc2-c2nn[nH]n2)cc1 (stereo not drawn) as the molecule, how does the Potency read?
Answer: active: 19.3 µM

Question: For Cc1cc(O)c(C(C)C)cc1Cl, which Potency is on record?
Answer: inactive and active: 61.1 µM

Question: For Cc1cc(O)c2ccccc2c1O, which Potency is on record?
Answer: inconclusive: 33.5 µM [cytotoxic, single point]

Question: Which Potency does the source give for CN(C)[C@@H]1C(=O)C(C(N)=O)=C(O)[C@@]2(O)C(=O)C3=C(O)c4c(O)ccc(Cl)c4[C@@H](O)[C@H]3C[C@@H]12 here?
Answer: inconclusive: 26.6 µM [rising, single point]

Question: Which Potency does the source give for O=C(Nc1ccc(Cl)cc1)Nc1ccc(Cl)c(C(F)(F)F)c1 here?
Answer: active: 5.31 µM

Question: With CSCCC=O as the molecule, how does the Potency read?
Answer: inconclusive: 65.3 µM [cytotoxic, partial curve] and inconclusive: 68.6 µM [cytotoxic, single point]

Question: For COc1cc([C@@H]2c3cc4c(cc3[C@H](O)[C@H]3COC(=O)[C@H]23)OCO4)cc(OC)c1OC, which Potency is on record?
Answer: active: 29.8 nM and active: 19.3 nM

Question: For O=C1OC(O)C(C(Cl)Cl)=C1Cl (stereo not drawn), which Potency is on record?
Answer: active: 1.26 µM

Question: Which Potency does the source give for O=P(O)(O)O here?
Answer: inconclusive: 15 µM [rising, partial curve]

Question: Which Potency does the source give for O=C(O)c1cccnc1 here?
Answer: inconclusive: 29.8 µM [rising, partial curve, poor fit]

Question: With O=C1Cc2cc(CCN3CCN(c4nsc5ccccc45)CC3)c(Cl)cc2N1 as the molecule, how does the Potency read?
Answer: active: 33.5 µM and active: 26.6 µM

Question: With COC(=O)[C@]1(C)CCC[C@@]2(C)[C@H]1CC=C1C=C(C(C)C)CC[C@@H]12 as the molecule, how does the Potency read?
Answer: inconclusive: 61.1 µM [cytotoxic, partial curve, poor fit]

Question: For CCCCCCCOC(=O)c1ccc(O)cc1, which Potency is on record?
Answer: inconclusive: 43.3 µM [cytotoxic, partial curve]

Question: With OCCN1CCN(CC/C=C2/c3ccccc3Sc3ccc(C(F)(F)F)cc32)CC1 as the molecule, how does the Potency read?
Answer: active: 13.3 µM

Question: Which Potency does the source give for O=C1c2ccccc2C(=O)N1SC1CCCCC1 here?
Answer: active: 6.85 µM and active: 5.45 µM

Question: Which Potency does the source give for CCCCCCCCn1sc(Cl)c(Cl)c1=O here?
Answer: inconclusive: 77 µM [cytotoxic, partial curve, poor fit]

Question: Which Potency does the source give for CCc1cc(Cc2cc(CC)c(N)c(CC)c2)cc(CC)c1N here?
Answer: active: 61.1 µM

Question: Which Potency does the source give for CCCCCCO here?
Answer: inconclusive: 61.4 µM [rising, partial curve, poor fit]

Question: Which Potency does the source give for CC(C)Cc1ccccc1 here?
Answer: inactive

Question: Which Potency does the source give for CC(C)(C)CC(C)(C)c1ccc(O)c(Cc2ccc(Cl)cc2Cl)c1 here?
Answer: inconclusive: 59.6 µM [cytotoxic, partial curve, poor fit]

Question: For CC(C)(C)c1cccc(C(C)(C)C)c1O, which Potency is on record?
Answer: inconclusive: 68.6 µM [cytotoxic, single point]

Question: For c1ccc2cc3ccccc3cc2c1, which Potency is on record?
Answer: inconclusive: 27.3 µM [cytotoxic, single point]
